Test results taken from PubChem BioAssay AID686979 (National Center for Advancing Translational Sciences (NCATS), 2013).
The whole screen tested about 420,000 compounds, of which about 50,000 (12%) were called active. Inconclusive results, whose numbers are uncertain, are shown with a selection of clear calls. Calls follow the shape of the dose curve; as a rule, active = well fitted inhibition curve with a large enough effect; inconclusive = small, poorly fitted or top-dose-only effect; inactive = flat fitted curve, though single readings scatter. No potency is given beside an inconclusive call; the fits are too rough.

Test: qHTS for Inhibitors of human tyrosyl-DNA phosphodiesterase 1 (TDP1): qHTS in cells in presence of CPT; also: nearly all actives have a fitted effect of over 55% in size
Conditions: chicken DT40 Tdp1-/-;hTDP1 cells + 20 nM CPT, ATP luminescence, 48 h; activity change, negative = growth inhibition: at 46.2 µM (top of the series)
Procedure, shortened: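 Cell growth measured by CellTiter-Glo luminescence after a minimum 48 h, 37 C compound exposure with 20 nM CPT in Tdp1-knockout DT40 cells stably expressing hTDP1, seeded 400/well; qHTS titration format.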
% is scaled to controls: 0 for no effect and ±100 for the full control effect; potency is read from the fitted curve at half-maximal effect; tags tell the direction and shape of the fitted curve.

| Structure (SMILES) | Potency | activity change, negative = growth inhibition |
| --- | --- | --- |
| O=C1C(Cc2ccc(F)cc2)SC(=Nc2ccccc2)N1c1ccccc1 (stereo not drawn) | inconclusive [inhibitor, single point] | – |
| CN1CCN(C(=O)CNC(=O)Cc2ccc(Cl)cc2)CC1 | – | inconclusive: -1.61% [inhibitor] |
| CCNC(=O)C1(C)CCN1CCC(=O)c1ccc(C)cc1 (stereo not drawn) | active: 20.6 µM | – |
| Cc1nc2ccccc2c(=O)n1-c1ccc(NC(=O)c2ccc([N+](=O)[O-])cc2)cc1 | inconclusive [inhibitor, partial curve] | – |
| COc1ccc(S(=O)(=O)c2cnc3ccc(OC)cc3c2N2CCC3(CC2)OCCO3)cc1 | active: 8.2 µM | – |
| Cn1c(SCCCC(=O)c2ccc(Br)cc2)nnc1-c1ccncc1 | inconclusive [inhibitor, single point] | – |
| O=C(C(=O)N1CCN(c2ccccc2Cl)CC1)c1c[nH]c2ccccc12 | inconclusive [inhibitor, single point] | – |
| O=C(CNC(=O)c1ccc2ccccc2c1)NCc1ccc(F)cc1 | inconclusive [inhibitor, partial curve] | – |
| CCCS(=O)(=O)N1CCCC(C(=O)NCCCOC)C1 (stereo not drawn) | – | inactive: 1.24% |
| COc1ccccc1C(C)NC(=O)c1ccc(C)o1 (stereo not drawn) | inconclusive [inhibitor, single point] | – |
| CCCCNC(=O)C(NC(=O)c1cnc(C)cn1)C(=O)c1ccccc1 (stereo not drawn) | – | inactive: -2.87% |
| Cc1nn(C(C)C)c(C)c1CN1CCN(Cc2ccsc2)C(CCO)C1 (stereo not drawn) | – | inactive: 13.8% |
| Cc1ccc2c(c1)[nH]c1c(=O)n(Cc3ccccn3)cnc12 | – | inactive: -8.14% |
| C=CCSc1nc(-c2ccc(OC)cc2)c(C#N)c(=O)n1CC=C | active: 16.4 µM | – |
| CCOC(=O)c1ccc(NC(=O)c2nc[nH]c2C(=O)N[C@@H](C)C(=O)OC(C)(C)C)cc1 | inconclusive [inhibitor, single point] | – |
| COc1ccccc1N1CCN(CCCN=C2CC(=O)N(C)C(=O)N2C)CC1 | – | inactive: 2.55% |
| Cc1cc(C)c2c(CN3CCCCC3C)cc(=O)oc2c1 (stereo not drawn) | inconclusive [inhibitor, single point] | – |
| COc1ccc(C(=O)Nc2nnc(S(=O)(=O)N(C)c3ccc(Cl)cc3)s2)cc1OC | – | inconclusive: -32.2% [inhibitor] |
| O=C(COC(=O)CCC(=O)c1cccs1)NC1CC1 | – | inactive: -0.171% |
| O=C(O)c1csc(-n2nc(-c3ccccc3)cc2C(F)(F)F)n1 | – | inactive: -5.28% |
| COc1ccc(C(=O)COc2ccc3ccc(=O)oc3c2)cc1 | inconclusive [inhibitor, single point] | – |
| COc1ccc(NC(=O)c2cc(-c3ccco3)nc3ccccc23)cn1 | inconclusive [inhibitor, single point] | – |
| Cc1csc(N(C)C(=O)CSc2nnc(COc3ccccc3C)o2)n1 | – | inconclusive: -35.2% [inhibitor] |
| Cc1ccc2[nH]c(CSc3nnc(NC(=O)c4ccccc4C)s3)cc(=O)c2c1 | active: 7.31 µM | – |

| Structure (SMILES) | Potency | activity change, negative = growth inhibition |
| --- | --- | --- |
| C#CCN1C(=O)C(O)(CC(=O)/C=C/C=C/c2ccccc2)c2ccccc21 (stereo not drawn) | inconclusive [inhibitor, single point] | – |
| O=C(COc1ccc2ccccc2c1)N[C@@H](C(=O)O)c1ccc(O)cc1 | – | inactive: 5.84% |
| c1ccc(CNc2ncncc2-c2ccoc2)cc1 | inconclusive [inhibitor, single point] | – |
| O=C(CSc1nc2ccccc2nc1Cc1ccccc1)N1CCCCC1 | inconclusive [inhibitor, single point] | – |
| N#Cc1c(NC2CCCCC2)nc(-c2ccco2)c2c1CCCC2 | inconclusive [inhibitor, single point] | – |
| C/C(=N\O)c1noc(C)c1C(=O)Nc1nccs1 | inconclusive [inhibitor, single point] | – |
| Cc1ccc(NC(=O)C(=O)NCC2OCCc3ccccc32)cc1 (stereo not drawn) | – | inactive: -24.8% |
| Cc1ccc(C(C(=O)Nc2ccc3c(c2)OCO3)N(C)C(=O)Cc2c[nH]c3ccccc23)cc1 (stereo not drawn) | inconclusive [inhibitor, single point] | – |
| CN(CC(=O)Nc1ccccc1Cl)C(=O)c1cc(-c2cccs2)nn1-c1ccccc1 | inconclusive [inhibitor, partial curve, poor fit] | – |
| CCCCCC(=O)N1C[C@H](n2cc(C3CC3)nn2)[C@@H](O)C[C@@H]1c1ccccc1 | – | inactive: -28.6% |
| Cc1ccc(CNC(=O)c2cccnc2Cl)cc1 | – | inactive: 5.47% |
| CCN(CC)CCN1CNC(=S)NC1 | – | inactive: 1.55% |
| CC(=O)Nc1ccc(OCC(=O)NCCc2ccccc2)cc1 | – | inactive: 18% |
| Oc1ccccc1N=N/C(=N/Nc1ccccc1O)c1ccccc1 | inconclusive [inhibitor, single point] | – |
| COC(=O)N(C)C[C@@H]1OCc2ccccc2-c2c(n(C)c3ccccc23)C(=O)N([C@H](C)CO)C[C@@H]1C | inconclusive [inhibitor, single point] | – |
| CC(=O)Nc1cccc(Oc2nc(-c3ccccn3)nc3ccccc23)c1 | inconclusive [inhibitor, single point] | – |
| CCCCCCCCN1C(=O)[C@H](CC(=O)N2CCN(C(=O)OCC)CC2)C[C@@]2(C(=O)OC)CC(C)(C)CC=C12 | active: 13 µM | – |
| CC(C)CC(=O)Nc1nc(=S)ss1 | inconclusive [inhibitor, partial curve] | – |
| Cc1nc(NCCc2ccccc2)c2nnn(Cc3ccccc3)c2n1 | – | inactive: -5.81% |
| CCN(CC)CCOc1nc(C)nc2c1oc1ccccc12 | inconclusive [inhibitor, single point] | – |
| COc1ccccc1/C=C/C(=O)OCC(=O)NC1CCCCCCC1 | – | inactive: -23.5% |
| NC(Cc1ccc(C(F)(F)F)cc1)c1csc(Nc2ccccn2)n1 (stereo not drawn) | inconclusive [inhibitor, single point] | – |
| COc1cccc(-c2nnc(SCC(=O)Nc3ccc4c(c3)OCCO4)n2Cc2ccco2)c1 | inconclusive [inhibitor, single point] | – |
| N#Cc1ccccc1NC(=O)CSc1nnc(-c2ccncc2)o1 | – | inactive: 0.89% |
